Results as given in article PMC4336329 (PLoS ONE, 2015).
In all, about 310,000 compounds went through this assay and about 2,200 (0.71%) showed an effect of 50% or more. The effect is printed as a negative number. This is one part of the list.

Target: human ether-à-go-go-related gene (hERG) potassium channel (human, UniProt Q12809)
Assay: primary screen, population patch clamp on CHO cells stably expressing hERG

human ether-à-go-go-related gene (hERG) potassium channel, sequence (Q12809 whole entry, looked up): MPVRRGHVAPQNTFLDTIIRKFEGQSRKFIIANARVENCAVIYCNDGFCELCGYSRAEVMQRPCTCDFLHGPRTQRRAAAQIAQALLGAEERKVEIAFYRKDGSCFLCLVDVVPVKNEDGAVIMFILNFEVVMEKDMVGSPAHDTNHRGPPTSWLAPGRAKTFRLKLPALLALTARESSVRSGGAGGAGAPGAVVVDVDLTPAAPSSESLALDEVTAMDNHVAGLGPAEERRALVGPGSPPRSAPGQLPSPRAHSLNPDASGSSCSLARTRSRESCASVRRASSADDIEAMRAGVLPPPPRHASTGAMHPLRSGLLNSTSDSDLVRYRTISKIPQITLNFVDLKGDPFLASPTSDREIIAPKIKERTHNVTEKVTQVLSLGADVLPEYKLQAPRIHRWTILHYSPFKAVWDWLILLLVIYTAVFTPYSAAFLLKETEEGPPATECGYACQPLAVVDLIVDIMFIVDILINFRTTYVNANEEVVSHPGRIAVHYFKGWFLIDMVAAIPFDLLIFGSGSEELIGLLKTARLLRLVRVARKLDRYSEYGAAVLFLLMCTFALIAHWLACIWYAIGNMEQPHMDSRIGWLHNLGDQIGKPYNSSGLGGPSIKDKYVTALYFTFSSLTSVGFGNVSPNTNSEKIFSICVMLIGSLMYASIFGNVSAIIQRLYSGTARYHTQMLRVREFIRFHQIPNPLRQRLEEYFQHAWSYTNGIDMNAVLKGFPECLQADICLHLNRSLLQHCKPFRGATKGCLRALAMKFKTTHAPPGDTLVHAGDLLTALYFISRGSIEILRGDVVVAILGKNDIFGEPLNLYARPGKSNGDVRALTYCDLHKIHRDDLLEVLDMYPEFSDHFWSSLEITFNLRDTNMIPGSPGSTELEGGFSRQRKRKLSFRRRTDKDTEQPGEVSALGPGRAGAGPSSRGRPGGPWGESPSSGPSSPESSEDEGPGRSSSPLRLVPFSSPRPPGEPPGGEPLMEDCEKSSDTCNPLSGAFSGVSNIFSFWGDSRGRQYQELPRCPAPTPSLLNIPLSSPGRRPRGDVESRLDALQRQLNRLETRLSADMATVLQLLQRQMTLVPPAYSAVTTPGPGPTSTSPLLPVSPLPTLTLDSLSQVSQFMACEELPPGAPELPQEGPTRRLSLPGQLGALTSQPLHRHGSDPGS

Row | Structure (SMILES) | hERG current change (%, negative = inhibition) at 1uM [%]
1 | Cc1cc(C)cc(Nc2ncc3c(n2)CCCC3=O)c1 | 6.58
2 | CC(C)Oc1ccc(CNC(=O)CCC(=O)N2CC(C)Sc3ccccc32)cc1 (stereo not drawn) | -0.0173
3 | COC(=O)c1ccc(CSc2ncn[nH]2)o1 | 7.19
4 | CC1(C)NC(=O)N(CC(=O)OCC(=O)Nc2cccc(F)c2)C1=O | 3.89
5 | CCCCOCCCN1C(C)=CC(=C2C(=O)NC(=S)NC2=O)C=C1C | 5.5
6 | CC(C)c1ccc(-c2nc3ccccc3s2)cc1 | 12.6
7 | O=C(NCCOc1ccc(F)cc1)C1CCN(S(=O)(=O)c2ccccc2)CC1 | -4.22
8 | COc1ccc(/C=C2\CC/C(=C\c3ccc(OC)c(OC)c3)C2=O)cc1OC | 2.08
9 | CCc1c(C)sc(NC(=O)c2cc(C(C)C)on2)c1C#N | 11.1
10 | COc1ccc(/C=N/NC(=O)c2ccc3c(c2)OCO3)c(C(=O)O)c1OC | 12.7
11 | CCCCOc1ccc(OCCNC(=O)C2CCCN2C(=O)Nc2ccccc2)cc1 (stereo not drawn) | 10.6
12 | O=C(CNc1cccc(C(F)(F)F)c1)Nc1cccc(S(=O)(=O)N2CCCC2)c1 | 16.2
13 | CN(CCOc1ccc(Cl)cc1)CC(=O)Nc1ccc(OC(F)F)cc1 | -39
14 | O=c1oc(CCCO)cc2ccc(C#Cc3ccsc3)cc12 | -2.43
15 | O=C(c1cc2ccccc2oc1=O)N(Cc1cccs1)CC1CCCO1 (stereo not drawn) | 10.6
16 | COc1ccc(NC(=O)CN(C)C(=O)CSCc2ccc(C)cc2)cc1 | 14.3
17 | CN1C(=O)C(C)(C)c2cc(S(=O)(=O)NCC3CCC(C(=O)NCc4ccc(F)cc4)CC3)ccc21 (stereo not drawn) | -17.3
18 | Cc1nnc(SCc2cc(=O)n3[nH]cnc3n2)s1 | -0.582
19 | CC1C(=O)CCN(C(C)(C)C)C1C.Cl (stereo not drawn) | 5.02

Row | Structure (SMILES) | hERG current change (%, negative = inhibition) at 1uM [%]
20 | COc1ccc(-c2cc(C(F)(F)F)n3nc(C(=O)Nc4c(C)n(C)n(-c5ccccc5)c4=O)c(Cl)c3n2)cc1 | 19.9
21 | CCn1cc(S(=O)(=O)Nc2ccccc2C(F)(F)F)cn1 | 13.9
22 | COc1cc(OC)cc(C(=O)Nc2nc(CC(=O)NC(C)c3ccccc3)cs2)c1 (stereo not drawn) | 10.1
23 | CC(C)c1csc2nc3n(c(=O)c12)CCCCC3 | 3.82
24 | CCC/C=N/NC(=O)c1cc(Br)ccc1O | 6.84
25 | Cc1nc2ccccn2c1CN(C)C(=O)C1CCC(=O)N(Cc2cccc(F)c2)C1 (stereo not drawn) | -58
26 | O=C1CC(N(Cc2ccco2)C(=O)Nc2ccc(F)cc2)C(=O)N1c1ccc(F)cc1 (stereo not drawn) | 11.2
27 | CC(C)(C)NC(=O)CN(C(=O)C1CSC(=O)C1)c1ccc2c(c1)OCCO2 (stereo not drawn) | 0.677
28 | CN(C)CCNC(=O)C(=O)NCC(c1ccc2c(c1)OCO2)N1CCN(c2ccc(F)cc2)CC1 (stereo not drawn) | 7.3
29 | C/C(=N\Nc1nc(C)cc(-c2ccccc2)n1)c1ccc(O)cc1 | 7.27
30 | Cc1ccc2oc(=O)n(CCOc3ccccc3Cl)c2c1 | 5.19
31 | CCCCCC(=O)N1CC2(CC(c3cccc(NC(=O)c4ccccc4)c3)=NO2)C[C@@H]1C(N)=O (stereo partly drawn) | -7
32 | Cc1ccc(-c2nc3ncccc3o2)cc1NC(=O)c1ccco1 | 11.8
33 | O=c1c2ccccc2cnn1-c1ccc(Cl)nn1 | 12.6
34 | Nc1c(N(CCO)C(=O)C2CCCCC2)c(=O)[nH]c(=O)n1Cc1ccccc1 | 4.53
35 | Cn1c(SCC(=O)N2CCOCC2)nc2cccnc21 | 5.9
36 | COc1ccc(NC(=S)N(Cc2ccc(C)cc2)Cc2ccccn2)cc1 | 12.5
37 | C=CCn1c(COc2cccc(C)c2)nnc1SC(C)C(=O)NC1CC1 (stereo not drawn) | 7.14
38 | COc1cc(CCN2C(=O)c3cccc4cccc(c34)C2=O)c(S(=O)(=O)N2CCCCCC2)cc1OC | 3.66

Row | Structure (SMILES) | hERG current change (%, negative = inhibition) at 1uM [%]
39 | Cc1c(C(=O)N/N=C/c2ccc(O)cc2)sc(=S)n1C | 3.62
40 | CCOc1ccc(C(=O)NCCCN2CCCC2=O)cc1 | -5.31
41 | CCOc1ccc(-n2c(N)c(-c3nc4ccccc4n3C)c3nc4ccccc4nc32)cc1 | 9.72
42 | O=C(c1ccc2c3c(cccc13)CC2)C1CCCN(Cc2ccccn2)C1 (stereo not drawn) | 13.3
43 | COc1ccc(CN(CC(=O)NCc2ccco2)C(=O)CCC(=O)Nc2ccccn2)cc1 | 13.5
44 | COc1ccc(N2CCOCC2)c(NC(=O)c2ccc(Br)o2)c1 | 6.18
45 | CSc1nc2ccc(S(=O)(=O)NC3CCCCC3)cc2s1 | 0.616
46 | COc1ccc(C(=O)NNC(=O)c2ccc(C(C)(C)C)cc2)cc1 | 8.21
47 | Cc1nnc(SCC(=O)NC(=O)NC(C)(C)C)s1 | 12.5
48 | N#CCSc1nnc(COc2ccc3ccccc3c2)o1 | 11.6
49 | CCOP(=O)(c1ccc(N(C)C)cc1)C(O)c1ccc(C)cc1 (stereo not drawn) | 15
50 | CCOc1ccc(C(=S)N2CCCC2)cc1 | 5.79
51 | CC1(C)NC(=O)N(CCCSc2ccc(Cl)cc2)C1=O | -0.732
52 | OCC[C@H]1C[C@H](O)[C@@H](O)[C@]2(Cc3ccccc3CO2)O1 | 14.4
53 | C=CCN1C=C2C(=O)C(C)(OC(=O)C3CCCC3)C(=O)C=C2C=C1c1ccsc1 (stereo not drawn) | 14.2
54 | C/C(Nc1ccc(F)cc1)=C(/C#N)C(N)=O | 9.39
55 | Cc1cc(C(=O)N/N=C/c2cccc([N+](=O)[O-])c2)c(C)n1-c1ccccc1 | 0.676
56 | Cc1sc(NC(=O)c2ccc(OCC(C)C)cc2)c(C(N)=O)c1-c1ccc(Cl)cc1Cl | 6.66
57 | O=C(NC1CCCCC1)n1c(=O)oc2ccc(Cl)cc21 | 11.3
